We go through 31 molecules from PubChem BioAssay AID488969 (Vanderbilt High Throughput Screening Facility, 2010).

Each structure is given as a SMILES string. Whole data set: some 110,000 compounds, median “z-score” near -0.1, cut for the highest 2% near 2. The list shows a part of the results. Active and inactive are the calls of the source.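 How the source made its calls: active means z-score in the third read window above 3 or below -3; inactive means the rest.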

This test addresses Metabotropic glutamate receptor 8 (Rattus norvegicus) (UniProt P70579). The test can be described thus: rat mGluR8 modulators via GIRK flux, primary screen, cell-based, thallium flux, HTS (AID 488969). Conditions: HEK293 rat mGluR8, GIRK (G protein-gated inwardly rectifying potassium channel) thallium flux, FluoZin2; at 10 µM; stronger effect = higher value; submaximal glutamate (EC20) added with thallium.
UniProt P70579, sequence (P70579 whole entry, looked up): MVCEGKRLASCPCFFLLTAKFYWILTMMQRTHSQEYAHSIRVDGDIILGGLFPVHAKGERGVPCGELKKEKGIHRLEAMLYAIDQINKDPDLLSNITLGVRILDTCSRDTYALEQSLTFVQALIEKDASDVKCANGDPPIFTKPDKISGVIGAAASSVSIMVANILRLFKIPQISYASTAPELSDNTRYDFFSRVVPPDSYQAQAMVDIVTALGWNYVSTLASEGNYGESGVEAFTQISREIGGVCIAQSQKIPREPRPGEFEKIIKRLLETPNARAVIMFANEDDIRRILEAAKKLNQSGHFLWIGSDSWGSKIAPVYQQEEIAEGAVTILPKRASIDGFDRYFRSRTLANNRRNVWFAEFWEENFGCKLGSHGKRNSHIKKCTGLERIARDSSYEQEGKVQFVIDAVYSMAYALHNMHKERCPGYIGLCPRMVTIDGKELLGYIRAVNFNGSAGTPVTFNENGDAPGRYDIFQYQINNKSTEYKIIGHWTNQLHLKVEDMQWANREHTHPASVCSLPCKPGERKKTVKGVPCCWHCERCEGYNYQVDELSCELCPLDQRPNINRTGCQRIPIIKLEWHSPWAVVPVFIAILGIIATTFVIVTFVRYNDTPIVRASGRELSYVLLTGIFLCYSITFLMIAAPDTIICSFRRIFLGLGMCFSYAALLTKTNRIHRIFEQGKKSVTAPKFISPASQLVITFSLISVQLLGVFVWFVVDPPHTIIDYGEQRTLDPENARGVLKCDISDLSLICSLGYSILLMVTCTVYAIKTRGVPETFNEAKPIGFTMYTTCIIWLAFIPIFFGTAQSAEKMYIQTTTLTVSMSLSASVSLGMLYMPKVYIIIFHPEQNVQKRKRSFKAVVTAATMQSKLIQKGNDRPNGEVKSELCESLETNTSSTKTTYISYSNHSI
As for `CCNc1nnc(-c2ccccc2OC)s1`, the z-score was 0.181.
As for `CCn1c(CSc2nc3ccccc3s2)nnc1SCC(N)=O`, the figure is -0.107; as for `COc1cc(CNCCN(C)C)c(Br)cc1OCC(=O)NCc1ccccc1`, -0.409.
The figure for `COc1cc(OC)c(NC(=O)CCCn2c(=O)oc3ccccc32)cc1Cl` is -0.0864; for `CC(C)Cn1c(N)c(C(=O)COC(=O)CC23CC4CC(CC(C4)C2)C3)c(=O)n(C)c1=O` it is -0.111; for `Cc1ccsc1/C=C1\SC(N2CCOCC2)=NC1=O` it is -0.0478.
As for `c1ccc(COc2ccc(OCCCNC3CCCC3)cc2)cc1`, the figure is 2.46.
`CCOC(=O)C(=CNc1cc(C)nn1-c1ccc(C)cc1)C(=O)OCC`: the z-score was -0.0759.
As for `O=C1CCCc2nn(-c3ccccc3)c(-c3ccncc3)c21`, the figure is 0.215; as for `CC(=O)c1c(C)[nH]c(C(=O)Nc2cc(C)cc(C)c2)c1C`, -0.406.
`O=C(C1CCCN1S(=O)(=O)c1cccc2cccnc12)N1CCn2c1nc1ccccc12` (stereo unspecified): the z-score is active: 3.63.
Regarding `Cc1ccc2nc(NC(=O)CSc3nc4c(c(=O)n3C)SC(C)C4)sc2c1` (stereo unspecified), the z-score was -1.21.
The figure for `O=C(CSc1nc2ccc(Cl)cc2[nH]1)c1ccc2c(c1)OCO2` is -0.0875.
As for `O=C1CCCC2=C1C(c1ccccc1)C1C(=O)c3ccccc3C1=N2` (stereo unspecified), the figure is 0.0439; as for `CCOC(=O)CSc1nc2c(c(=O)n1-c1ccc(OCC)cc1)SCC2`, -0.284.
The figure for `COC(=O)C1=C(C)N(C)C(=S)NC1c1ccccc1` (stereo unspecified) is -0.183; for `Cc1ccc(C(=O)Nc2nnc(C)s2)o1` it is -0.0894; for `Nn1cnnc1N/N=C/c1cc(Br)cc(Br)c1O` it is -0.242.
For the molecule `O=c1c2ccccc2ncn1-c1cccc(Cl)c1`, the z-score stood at 0.000335.
Regarding `Cc1cc(NC(=S)N(CCCN2CCOCC2)Cc2ccco2)ccc1Cl`, the z-score is -1.34.
As for `COc1ccc(C(=O)NCc2c(CC(C)C)oc(C)c2C(=O)O)cc1`, the figure is -0.742; as for `Cc1cc(C)c(S(=O)(=O)Nc2ccc3c4c(cccc24)CC3)c(C)c1`, -0.268.
As for `CN1CCN(S(=O)(=O)c2ccc(-c3ccccc3)cc2)CC1`, the figure is 0.335.
The figure for `Cn1c(=O)[nH]c(=O)c2c1nc(N1CCCCCC1)n2CCCSc1nnnn1-c1ccccc1` is 0.52; for `CCOC(=O)N1CCN(C(=O)c2ccc3nc4cc(Cl)ccc4c(=O)n3c2)CC1` it is 0.455; for `FC(F)(F)c1cc(C(F)(F)F)c2ccc(N3CCN(c4ncccn4)CC3)nc2n1` it is -1.01.
On to `CC1CCC(C(=O)NC(C(=O)N2CCN(c3ccccn3)CC2)C(C)C)CC1` (stereo unspecified), for which the z-score was determined as 0.727.
The figure for `O=C(NCCO)c1cc2ccccc2cc1O` is 0.0268; for `O=C(CCS(=O)(=O)c1cccs1)Nc1ccc(C(=O)NCc2cccs2)cc1` it is -1.
The figure for `CC(=O)Nc1ccc(S(=O)(=O)Nc2ccc(N3CCOCC3)cc2)cc1` is -0.0547; for `Clc1ccc(OCc2nn3c(-c4ccncc4)nnc3s2)cc1` it is 0.253.
